# The list shows a part of the results.
# Test system: PfSIP2 AP2 domain 1 (GST-tagged)
# Assay: gcPBM binding intensity (ln(normalized median fluorescence intensity)); higher = stronger DNA binding
# Procedure, shortened: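 After 1 h on an Agilent 4 × 180k array of primer-extended double-stranded 36-bp intergenic genomic probes and negative controls, bound GST-tagged P. falciparum DNA-binding domains were detected with Alexa488 anti-GST antibody and scanned at 488 nm. The domains had been expressed in E. coli, and binding took place in 1× PBS with 1% milk, 0.2 mg/ml BSA, 0.5% salmon testes DNA and 0.03% Triton X-100. Binding intensity is the highest Masliner-normalised natural-log median intensity across replicate spots of either probe orientation.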
row,Sequence,gcPBM binding intensity (ln)
1,TTTTAATAAATCATTTTCCTAATATTTATATTTGCT [TGCATGCA_negctrl_site232],6.71
2,TTTTTCATTTAGCTTTTACACACTATATATTATTGA [CACACA_site7888],7.16
3,CTCTTTTCTTATAATACACACAGTAATATTTATATA [CACACA_site6824],7.53
4,AATAAAAAAAATTTCTGTACATATATTTATTATATA [XGTACX_site1883],6.93
5,CAAACCCACCAACACACACACACAAAAATGATTAAA [CACACA_site2432],7.14
6,TACTTTTTTATTTGGTGTACAAATAAAATCATAATG [XGTACX_site1802],7.26
7,GAAGATATATAATAATTCATAGTTTTTTAATTTAAA [TGCATGCA_negctrl_site295],6.52
8,ATATATTTTGATTGCACACAGAATTTAAATCATGAT [CACACA_site2343],7.18
9,AAAATAAAAAAAATAAATAAAAAAAATAATAATAAA [CACACA_negctrl_site563],6.55
10,TCATAAATATAAAGTGTGCACTTGAATAATATGTAT,9.52
11,TAAATAAATCTGTGCTTGCACTTTTTTTGTTATTTT,7.74
12,ATATAAACATATAATAGTACACTTCGATAATTTTAT [XGTACX_site3321],7.09
13,ATTTAACATATAAAATGTACATATATATATATATTT [XGTACX_site2525],7.15
14,GTACCATCAAAATAAATATATATATATATATATTTT [GTGCAC_negctrl_site646],7.57
15,TTTGTGTTGTATTTTTGTACATAAAATAAACTTAAA [XGTACX_site4637],7.16
16,TTTCTTTTTTCTTCAGTGCATTAAAATTAACAAAAG,9.07
17,GAGCCCAAAAAATTAGGTACGTATAAAGAGGTATTT [XGTACX_site5348],6.79
18,CATATATATATTGGAAGTACATATTTAATATTCATT [XGTACX_site3545],6.99
19,AGGAAAATTTTATTTGCACACATTATTACGTCTAAA [CACACA_site2337],7.01
20,TCTTTTTTCATATTTTCACACATGTCTTTATATTTA [CACACA_site6025],7.17
21,ACATGTAATATAATGTGTACATATACAAAGGTATAT [XGTACX_site4145],7.2
22,ATAAAGTATATTATATGTACATATATATATTATATA [XGTACX_site1345],7.18
23,AGATGAGAAATATATACACACAATAATACCTATTTA [CACACA_site876],6.85
24,ATATAACATAGACACACACACATATAAATATATTAT [CACACA_site7865],7.2
25,CTTTATAAAATAAGAGTGCGTTATATTGAATTGTAT [GTGCAC_site9390],8.26

# — the supplement of paper PMC11417369
